# Some of the results follow. Most values come without repeats; read them as rough.
# Tested on: RVH-421
# Assay: cell count relative to DMSO control; melanoma cells; higher = more viable cells
# Details: library dose: standard library concentration; 72 h
# 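Also: cells treated in 1,536-well plates, then fixed and DAPI-stained, with nuclei counted from automated high-throughput microscope images.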
row,Compound,cell count [%]
1,"CS(=O)(=O)c1ccc(C(=O)Nc2ccc(Cl)c(-c3ccccn3)c2)c(Cl)c1 [vismodegib] + CCCCCCCCCCCC1=C(O)C(=O)C=C(O)C1=O [Embelin] (first compound 5 µM, partner dose 6 µM)",66.2
2,"CCCS(=O)(=O)Nc1ccc(F)c(C(=O)c2c[nH]c3ncc(Cl)cc23)c1F + COc1ccc(COc2ccc(Cc3cnc(N)nc3N)cc2OC)cc1 [GW2580] (first compound 0.4 µM, partner dose 5 µM)",62.7
3,"CN(c1ncccc1CNc1nc(Nc2ccc3c(c2)CC(=O)N3)ncc1C(F)(F)F)S(C)(=O)=O + CN(NC(=O)CC(=O)NN(C)C(=S)c1ccccc1)C(=S)c1ccccc1 [STA4783] (first compound 0.4 µM, partner dose 0.03 µM)",53.5
4,"C=C(c1ccc(C(=O)O)cc1)c1cc2c(cc1C)C(C)(C)CCC2(C)C [Bexarotene] + Cc1cc(N2CCOCC2)cc2[nH]c(-c3c(NC[C@@H](O)c4cccc(Cl)c4)cc[nH]c3=O)nc12 [BMS536924] (first compound 10 µM, partner dose 1 µM)",92
5,"CN(c1ncccc1CNc1nc(Nc2ccc3c(c2)CC(=O)N3)ncc1C(F)(F)F)S(C)(=O)=O + C#Cc1cccc(Nc2ncnc3cc(OCCOC)c(OCCOC)cc23)c1 [erlotinib] (first compound 0.4 µM, partner dose 4 µM)",71.7
6,"C=C(c1ccc(C(=O)O)cc1)c1cc2c(cc1C)C(C)(C)CCC2(C)C [Bexarotene] + CN(NC(=O)CC(=O)NN(C)C(=S)c1ccccc1)C(=S)c1ccccc1 [STA4783] (first compound 10 µM, partner dose 0.03 µM)",45.5
7,"NC1(c2ccc(-c3nc4ccn5c(=O)[nH]nc5c4cc3-c3ccccc3)cc2)CCC1 + O=C(O)C(=O)Nc1sc2c(c1C(=O)O)CCNC2 [TCS401] (first compound 2 µM, partner dose 8.33333 µM)",80.8
8,"NC1(c2ccc(-c3nc4ccn5c(=O)[nH]nc5c4cc3-c3ccccc3)cc2)CCC1 + O=C(Nc1cccc(Cl)c1)Nc1ncc(CCNc2ncnc3ccsc23)s1 [SNS314] (first compound 2 µM, partner dose 0.004 µM)",81.9
9,"CCCS(=O)(=O)Nc1ccc(F)c(C(=O)c2c[nH]c3ncc(Cl)cc23)c1F + CC(=O)c1c(C)c2cnc(Nc3ccc(N4CCNCC4)cn3)nc2n(C2CCCC2)c1=O [palbociclib] (first compound 0.4 µM, partner dose 0.2 µM)",62.4
10,"CS(=O)(=O)c1ccc(C(=O)Nc2ccc(Cl)c(-c3ccccn3)c2)c(Cl)c1 [vismodegib] + Cc1cc(N2CCOCC2)cc2[nH]c(-c3c(NC[C@@H](O)c4cccc(Cl)c4)cc[nH]c3=O)nc12 [BMS536924] (first compound 5 µM, partner dose 1 µM)",81.9
11,"CCCS(=O)(=O)Nc1ccc(F)c(C(=O)c2c[nH]c3ncc(Cl)cc23)c1F + CCCCCCCCCCCC1=C(O)C(=O)C=C(O)C1=O [Embelin] (first compound 0.4 µM, partner dose 6 µM)",102
12,"NC1(c2ccc(-c3nc4ccn5c(=O)[nH]nc5c4cc3-c3ccccc3)cc2)CCC1 + CC(C)(C)c1cnc(CSc2cnc(NC(=O)C3CCNCC3)s2)o1 [SNS-032] (first compound 2 µM, partner dose 0.05 µM)",85.8
13,"C=C(c1ccc(C(=O)O)cc1)c1cc2c(cc1C)C(C)(C)CCC2(C)C [Bexarotene] + CC(=O)c1c(C)c2cnc(Nc3ccc(N4CCNCC4)cn3)nc2n(C2CCCC2)c1=O [palbociclib] (first compound 10 µM, partner dose 0.2 µM)",54.7
14,"CN(c1ncccc1CNc1nc(Nc2ccc3c(c2)CC(=O)N3)ncc1C(F)(F)F)S(C)(=O)=O + O=C(Nc1ccccc1)c1cc([N+](=O)[O-])ccc1Cl [GW9662] (first compound 0.4 µM, partner dose 10 µM)",63.4
15,"CCCS(=O)(=O)Nc1ccc(F)c(C(=O)c2c[nH]c3ncc(Cl)cc23)c1F + Cc1nc(Nc2ncc(C(=O)Nc3c(C)cccc3Cl)s2)cc(N2CCN(CCO)CC2)n1 [dasatanib] (first compound 0.4 µM, partner dose 0.02 µM)",73.5

# Source: the supplement of paper PMC4604168 (melanoma cell lines)
